Source: the antibiotic and cytotoxicity screens of Wong et al. (2023)
The other results are listed elsewhere or left out.

Tested on: S. aureus RN4220
Experiment: growth inhibition call (relative growth <= 0.2)
Conditions: 50 µM

Growth inhibition call, inactive:
C[C@@H]1CN([C@@H](C)CO)C(=O)c2cc(C#CC3(O)CCCC3)cnc2O[C@H]1CN(C)C(=O)Cc1ccncc1, C[C@H](O)C#Cc1ccc2c(c1)O[C@@H](CN(C)C(=O)Nc1ccccc1)[C@H](C)CN([C@H](C)CO)S2(=O)=O, COc1ccc(S(=O)(=O)N(C)C[C@@H]2Oc3ccc(NC(=O)C4CC4)cc3CC(=O)N([C@H](C)CO)C[C@@H]2C)cc1, COc1ccc(NC(=O)N(C)C[C@H]2Oc3ccc(NC(=O)Cn4cnnn4)cc3CC(=O)N([C@@H](C)CO)C[C@H]2C)cc1, C[C@H](CO)N1C[C@H](C)[C@@H](CN(C)S(=O)(=O)c2cccs2)Oc2c(NS(C)(=O)=O)cccc2C1=O, CC(=O)N(C)C[C@@H]1Oc2ncc(C#C[C@H](C)O)cc2C(=O)N([C@H](C)CO)C[C@@H]1C, COc1ccc(CN(C)C[C@H]2OCCCC[C@H](C)Oc3ccc(NC(=O)c4ccccc4)cc3C(=O)N([C@H](C)CO)C[C@H]2C)cc1, C[C@@H]1CN([C@@H](C)CO)S(=O)(=O)c2ccc(-c3ccc(F)cc3)cc2O[C@@H]1CN(C)C(=O)C1CCOCC1, CCCN1C[C@@H](C)[C@H](OC)CN(C)C(=O)c2ccc(NS(=O)(=O)c3cn(C)cn3)cc2OC[C@@H]1C, C[C@@H]1CN([C@H](C)CO)C(=O)c2cc(NC(=O)CCN3CCOCC3)ccc2O[C@H]1CN(C)Cc1ccccc1, C[C@@H]1CN([C@H](C)CO)C(=O)c2cccc(NC(=O)Nc3ccc(C(F)(F)F)cc3)c2O[C@@H]1CN(C)S(C)(=O)=O, O=C(CNC(=O)c1ccc(Cl)cc1)NO, C[C@@H]1CN([C@@H](C)CO)C(=O)c2cc(NC(=O)Nc3ccc4c(c3)OCO4)ccc2O[C@@H]1CN(C)Cc1ccc(C(=O)Nc2ccccc2N)cc1, COc1ccc([C@H](O)[C@H](CCO)OC)cc1O, CC(=O)OCC(=O)C1(O)CCC2C3CCC4=CC(=O)C=CC4(C)C3(F)C(O)CC21C (stereo not given), C[C@@H]1CCCCO[C@@H](CN(C)C(=O)Nc2ccc(F)cc2)[C@H](C)CN([C@H](C)CO)C(=O)c2cc(NS(=O)(=O)c3cccs3)ccc2O1, Cn1cnc(S(=O)(=O)N2C[C@H](O)COC[C@H]3O[C@@H](CC(=O)N4CCN(c5ccccc5)CC4)CC[C@@H]32)c1, CC(=O)N[C@H]1[C@H](O/N=[N+](\[O-])N2CCCC2)O[C@H](CO)[C@@H](O)[C@@H]1O, CO[C@H]1CN(C)C(=O)c2cc(NS(C)(=O)=O)ccc2OC[C@H](C)N(S(C)(=O)=O)C[C@H]1C, O=C(N[C@@H]1CC[C@H](CCNS(=O)(=O)c2ccc(F)cc2)O[C@H]1CO)C1CC1, CC(C)NC(=O)N(C)C[C@H]1Oc2ccc(NS(=O)(=O)c3ccc(F)cc3)cc2CC(=O)N([C@@H](C)CO)C[C@@H]1C, Cc1noc(C)c1NC(=O)Nc1ccc2c(c1)C(=O)N([C@@H](C)CO)C[C@@H](C)[C@H](CN(C)CC1CC1)OCCCC[C@@H](C)O2, C[C@@H]1CN([C@H](C)CO)C(=O)CCCn2nncc2CO[C@@H]1CN(C)C(=O)C1CC1, C[C@H](CO)N1C[C@H](C)[C@@H](CN(C)Cc2cccc3c2OCCCO3)OCc2ccccc2-c2c(n(C)c3ccccc23)C1=O, Clc1nccc2ccccc12, COc1ccc(COC[C@]23N=C4SCc5ccccc5C(=O)N4[C@H](c4ccccc4O2)[C@H]3COC(=O)c2ccccc2)cc1, C[C@H]1CN([C@@H](C)CO)C(=O)c2cccc(NC(=O)c3ccc(-c4nccs4)cc3)c2O[C@@H]1CN(C)Cc1ccccc1, CC(C)NC(=O)Nc1ccc2c(c1)CC(=O)N([C@H](C)CO)C[C@@H](C)[C@H](CN(C)Cc1ccc(C(=O)O)cc1)O2, C[C@H]1CN([C@@H](C)CO)C(=O)c2cccc(NC(=O)c3cnccn3)c2O[C@@H]1CN(C)S(=O)(=O)c1cccs1, C[C@H](CO)N1C[C@H](C)[C@@H](CN(C)Cc2ccccc2C(F)(F)F)OCc2ccccc2-c2c(n(C)c3ccccc23)C1=O, CN(C)C(=O)C[C@@H]1CC[C@H](NC(=O)C2CCOCC2)[C@H](CO)O1, Cc1ccc(S(=O)(=O)Nc2ccc3c(c2)C(=O)N([C@@H](C)CO)C[C@H](C)[C@H](CN(C)S(=O)(=O)c2ccccc2)O3)cc1, Cc1ccc(S(=O)(=O)Nc2ccc3c(c2)C(=O)N([C@H](C)CO)C[C@@H](C)[C@@H](CN(C)C(=O)Nc2cccc4ccccc24)OCCCC[C@@H](C)O3)cc1, C[C@@H]1CCCCO[C@@H](CN(C)Cc2ccc(Cl)c(Cl)c2)[C@H](C)CN([C@H](C)CO)C(=O)c2cc(NS(C)(=O)=O)ccc2O1, CC(C)NC(=O)Nc1ccc2c(c1)C(=O)N([C@H](C)CO)C[C@@H](C)[C@H](CN(C)C(=O)NC1CCCCC1)O2, C[C@H](CO)N1C[C@H](C)[C@@H](CN(C)C(=O)Nc2ccc(F)cc2)OCCCC[C@H](C)Oc2ccc(NC(=O)Nc3cccc4ccccc34)cc2C1=O, COc1ccc(-c2cnc3c(c2)C(=O)N([C@@H](C)CO)C[C@H](C)[C@@H](CN(C)C(=O)Cc2cccnc2)O3)cc1, C[C@H]1NC(=O)COC12CCN(C(=O)c1cnccn1)CC2, CC(=C(CCOP(=O)(O)O)SC(=O)c1ccccc1)N(C=O)Cc1cnc(C)nc1N, COc1ccccc1S(=O)(=O)N(C)C[C@H]1OCc2cnnn2CCCC(=O)N([C@@H](C)CO)C[C@H]1C
